# Out of some 360,000 compounds screened, about 25,000 (6.9%) were called active. The inconclusive results got no clear call from the source; some entries with a clear call stand among them for comparison. The call rests on the fitted dose curve; in most records, active means well fitted inhibition curve with a large enough effect; inconclusive means small, poorly fitted or top-dose-only effect; inactive means flat fitted curve, though single readings scatter. Where the call is inconclusive, the potency comes from a doubtful curve fit.
# Target: Luciferin 4-monooxygenase (Photinus pyralis) (UniProt P08659)
# Chain of UniProt P08659 (P08659 whole entry, looked up): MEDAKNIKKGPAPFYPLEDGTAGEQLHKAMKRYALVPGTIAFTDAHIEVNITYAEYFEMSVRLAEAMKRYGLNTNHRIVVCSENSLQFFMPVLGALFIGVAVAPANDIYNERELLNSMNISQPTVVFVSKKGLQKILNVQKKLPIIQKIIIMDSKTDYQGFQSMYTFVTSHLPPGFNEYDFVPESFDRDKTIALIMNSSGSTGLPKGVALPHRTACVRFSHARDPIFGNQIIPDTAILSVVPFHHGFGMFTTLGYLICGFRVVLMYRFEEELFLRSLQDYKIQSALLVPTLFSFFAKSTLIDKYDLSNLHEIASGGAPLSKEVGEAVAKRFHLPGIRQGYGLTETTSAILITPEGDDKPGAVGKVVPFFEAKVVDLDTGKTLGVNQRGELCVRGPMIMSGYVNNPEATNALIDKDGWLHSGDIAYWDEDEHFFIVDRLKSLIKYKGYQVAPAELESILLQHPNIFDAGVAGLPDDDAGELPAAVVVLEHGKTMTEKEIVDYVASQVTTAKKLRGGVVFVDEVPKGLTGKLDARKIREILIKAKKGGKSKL
# Assay: qHTS profiling assay for firefly luciferase inhibitor/activator using purifed enzyme and Km concentrations of substrates (counterscreen for miR-21 project); further: nearly all actives have a fitted effect of over 55% in size;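 on activity change, negative = inhibition: plate controls were vehicle for no effect and reference inhibitor for full effect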
# Conditions: purified FLuc, luminescence inhibition; series mostly up to 57.5 µM; activity change, negative = inhibition: at the top concentration
# Method in brief: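 Purified P. pyralis luciferase (10nM final) with 10uM D-luciferin and 10uM ATP (Km levels) in 50mM Tris acetate pH 7.5, 10mM Mg acetate, 0.01% Tween-20, 0.05% BSA; qHTS 6-point titration, ~60 µM downward; luminescence read.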
# Potency means the concentration at half of the fitted maximal effect; tags describe the fitted curve by direction and shape.
Structure (SMILES),Potency,"activity change, negative = inhibition"
O=C(O)c1ccccc1C(=O)c1ccc(N2CCOCC2)c([N+](=O)[O-])c1,"inconclusive: 23.9 µM [inhibitor, partial curve, poor fit]",–
C/C(=N\NC(=S)Nc1ccc(C(C)C)cc1)c1ccc2c(c1)OCO2,"inconclusive: 15.1 µM [inhibitor, partial curve]",–
CCCCC(=O)NCc1ccccc1Cl,"inconclusive: 21.3 µM [inhibitor, partial curve, poor fit]",–
O=C(Nc1nnc(CCc2ccccc2)s1)c1cccs1,"inconclusive: 7.57 µM [inhibitor, partial curve, poor fit]",–
Cc1ccc(OCc2ccc(C(=O)N3CCCC3)o2)cc1C,"inconclusive: 26.9 µM [inhibitor, single point]",–
COc1ccc(/C=C/C(=O)NC(=S)Nc2ccccn2)cc1,"inconclusive: 8.49 µM [inhibitor, partial curve]",–
CCc1ccc(/C=C2\SC(=S)N(CCCC(=O)Nc3ccccc3C(=O)O)C2=O)cc1,"inconclusive: 23.9 µM [inhibitor, single point]",–
COc1ccc(/C(C)=N/NC(=O)c2ccc3nc[nH]c3c2)cc1,"inconclusive: 23.9 µM [inhibitor, single point]",–
Cc1cc(C)nc(NS(=O)(=O)c2ccc(NC(=O)Nc3ccccc3)cc2)n1,"inconclusive: 23.9 µM [inhibitor, single point]",–
CCc1ccc(-c2cc(C(=O)Nc3ccc(S(=O)(=O)NC(C)=O)cc3)c3ccccc3n2)cc1,active: 0.536 µM,–
COc1ccc(-c2nnc(SCC(=O)c3ccc(C)o3)o2)cc1,"inconclusive: 21.3 µM [inhibitor, single point]",–
COc1ccc(-n2c(C)c(C)c3c(NCCCO)ncnc32)cc1,"inconclusive: 19 µM [inhibitor, partial curve, poor fit]",–
COc1cccc(NC(=O)CCSc2ccc3ccccc3n2)c1,"inconclusive: 37.9 µM [inhibitor, partial curve, poor fit]",–
CCCc1cc(=O)n2[nH]c(-c3ccc(C)cc3)cc2n1,active: 9.53 µM,–
O=C(c1cc2ccccc2oc1=O)N(Cc1ccc(F)cc1)C1CCS(=O)(=O)C1 (stereo not drawn),active: 19 µM,–
Cc1ccc(OC(=O)c2ccc([N+](=O)[O-])cc2Cl)cn1,active: 12 µM,–
C/C(Cc1ccccc1)=N\NC(=O)CNC(=O)c1ccc(C(C)(C)C)cc1,"inconclusive: 30.1 µM [inhibitor, partial curve, poor fit]",–
COc1ccc(-c2nnc(SCC(=O)N3CCCC3)o2)c(OC)c1,"inconclusive: 26.9 µM [inhibitor, single point]",–
Cc1ccc(C(=O)NN2CCOCC2)cc1[N+](=O)[O-],–,inactive: 4.14%
Cc1cc(C)c(Cn2c3ccccc3c3cnn(CC(=O)NCc4ccc(Cl)cc4)c(=O)c32)c(C)c1,–,inactive: 1.97%
O=C(Nc1nnc(S(=O)(=O)N2CCCCC2)s1)c1ccc(F)cc1,"inconclusive: 21.3 µM [inhibitor, partial curve, poor fit]",–
O=C(O)C1CC(=O)N(c2ccc(OCc3ccc(Br)cc3)cc2)C1 (stereo not drawn),"inconclusive: 19 µM [inhibitor, partial curve]",–

Structure (SMILES),Potency,"activity change, negative = inhibition"
COc1ccc(C(=O)N2CCc3ccccc32)cc1,"inconclusive: 26.9 µM [inhibitor, single point]",–
COc1ccc(NC(=O)c2sc(N)nc2-c2ccccc2)cc1,–,inactive: -6.15%
NC(=O)c1oc2ccccc2c1NC(=O)c1ccccc1,"inconclusive: 26.9 µM [inhibitor, partial curve, poor fit]",–
CCOC(=O)Cc1nnn(CC(=O)OCC)n1,–,inactive: 0.261%
CC(C)COc1ccc(C(=O)Nc2ccccc2[N+](=O)[O-])cc1,"inconclusive: 10.7 µM [inhibitor, partial curve]",–
COc1ccc(NC(=O)c2cc(-c3ccccc3)oc2C)cc1,"inconclusive: 9.53 µM [inhibitor, single point]",–
CCOc1ccc(C(=O)Cc2ccc3oc(C(=O)O)cc3c2)c(O)c1,"inconclusive: 23.9 µM [inhibitor, single point]",–
O=c1[nH][nH]c2cc(=O)n(-c3cccc(C(F)(F)F)c3)nc12,"inconclusive: 37.9 µM [inhibitor, partial curve, poor fit]",–
Cn1c(SCC(=O)Nc2ccc(N3CCOCC3)cc2)nnc1C(F)(F)F,"inconclusive: 26.9 µM [inhibitor, partial curve, poor fit]",–
CCc1ccc(C(=O)Nc2cccc(-c3nn[nH]n3)c2)s1,active: 1.51 µM,–
CCc1sc(C(=O)Nc2cccc(C(C)=O)c2)cc1C,active: 10.7 µM,–
Cc1ccc(NC(=O)c2cnc(N3CCCCC3)c3ccccc23)cc1Cl,"inconclusive: 26.9 µM [inhibitor, partial curve, poor fit]",–
CCN(CC)c1ccc(/C=N/OC(C)C(=O)Nc2ccc(C)cc2)cc1 (stereo not drawn),"inconclusive: 16.9 µM [inhibitor, partial curve]",–
CCN(CC)C(=O)CCCOc1ccc(Cl)cc1Cl,"inconclusive: 26.9 µM [inhibitor, partial curve, poor fit]",–
O=C(CS(=O)(=O)c1c[nH]c2ccccc12)Nc1ccc2c(c1)OCCO2,"inconclusive: 37.9 µM [inhibitor, single point]",–
COC(=O)c1scc(-c2ccc(C)cc2)c1S(=O)(=O)Nc1cccc(Cl)c1C,"inconclusive: 10.7 µM [inhibitor, partial curve]",–
Cc1cc(N2CCC(C)CC2)nc2ccc(N3C(=O)CCC3=O)cc12,"inconclusive: 21.3 µM [inhibitor, partial curve, poor fit]",–
CCN1CCN(c2cc(C)c3cc(NC(=O)c4cccc(Cl)c4)ccc3n2)CC1,"inconclusive: 21.3 µM [inhibitor, single point]",–
CN(C)c1cc[n+](CC(=O)Nc2ccccc2C(F)(F)F)cc1,–,inactive: -1.82%
O=C(CSc1nnc(-c2ccccc2O)o1)N1CCCCC1,active: 10.7 µM,–
CC1=NN(c2nc(-c3ccc(C#N)cc3)cs2)C(=O)C1,"inconclusive: 21.3 µM [inhibitor, partial curve, poor fit]",–

# From PubChem BioAssay AID588342 (National Center for Advancing Translational Sciences (NCATS), 2011)
